The record followed here is the supplement of paper PMC12217912.

The labels stand for the following.
B1: TEV protease; numbered along this chain (parent)
chain: MGESLFKGPRDYNPISSSICHLTNESDGHTTSLYGIGFGPFIITNKHLFRRNNGTLVVQSLHGVFKVKDTTTLQQHLVDGRDMIIIRMPKDFPPFPQKLKFREPQREERICLVTTNFQTKSMSSMVSDTSCTFPSGDGIFWKHWIQTKDGQCGSPLVSTRDGFIVGIHSASNFTNTNNYFTSVPKNFMELLTNQEAQQWVSGWRLNADSVLWGGHKVFMVKPEEPFQPVKEATQL

The other results are listed elsewhere or left out. The full chains were built here from the parent and the listed change. Inactive controls read about 0.05.

This assay covers variants of B1. Briefly: raw area under fraction-flipped curve 0-4 h after induction (AUC4h, not background-subtracted), DNA-recorder readout of cleavage of the substrate (dimensionless); higher = more cleavage of the substrate by the protease variant. The conditions noted are these: temperature: 34 °C; time window: 0-4 h after rhamnose induction. The protocol: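 In vivo DNA recorder in E. coli TOP10(DE3) ΔrhaA at 34 °C. Each TEVp single-site mutant (parent TEVp 0) is paired with a single-site variant of the 7-mer TEVs (canonical ENLYFQ|S). The substrate sits between flexible linkers in a Bxb1-sfGFP-TEVs-SsrA fusion, so cleavage stabilises Bxb1 and speeds flipping of a recombination array, read by NGS. The value is the raw area under the fraction-flipped curve over 0-4 h after rhamnose induction (AUC4h), with ≥20 reads per time point. It is not background-subtracted; inactive controls average about 0.047.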
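Further: Bxb1 expression induced with 0.2% (w/v) L-rhamnose at OD600 near 0.5, cultures sampled hourly, flipped fraction per protease–substrate barcode pair counted by paired-end Illumina sequencing.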

In the case of T176C, the “area with substrate ENLAFQS” value stood at 0.0574, the “area with substrate ENLDFQS” value was found to be 0.0667, the “area with substrate ENLEFQS” value stood at 0.0775 and the “area with substrate ENLFFQS” value came to 0.0585. For the same variant, the “area with substrate ENLGFQS” value was 0.0619, the “area with substrate ENLHFQS” value was determined as 0.0648, the “area with substrate ENLKFQS” value was 0.0812 and the “area with substrate ENLLFQS” value amounted to 0.0663. For the same variant, the “area with substrate ENLNFQS” value was 0.0799, the “area with substrate ENLPFQS” value came to 0.0282, the “area with substrate ENLQFQS” value worked out at 0.0657 and the “area with substrate ENLSFQS” value was found to be 0.0655.
Regarding L112Y, the “area with substrate ENLAFQS” value turned out to be 0.0512, the “area with substrate ENLCFQS” value amounted to 0.0625, the “area with substrate ENLDFQS” value came to 0.067 and the “area with substrate ENLEFQS” value is 0.0648. In addition, the “area with substrate ENLFFQS” value stood at 0.0691, the “area with substrate ENLGFQS” value was 0.0574, the “area with substrate ENLHFQS” value was 0.0568 and the “area with substrate ENLIFQS” value came to 0.0586. For the same variant, the “area with substrate ENLKFQS” value came out at 0.0669, the “area with substrate ENLMFQS” value stood at 0.0529, the “area with substrate ENLNFQS” value turned out to be 0.032 and the “area with substrate ENLPFQS” value was found to be 0.066. For the same variant, the “area with substrate ENLQFQS” value was found to be 0.067, the “area with substrate ENLRFQS” value is 0.0648, the “area with substrate ENLVFQS” value amounted to 0.0564 and the “area with substrate ENLWFQS” value stood at 0.0591.
For E224S, the “area with substrate ENLAFQS” value is 0.0685, the “area with substrate ENLCFQS” value worked out at 0.0706, the “area with substrate ENLDFQS” value was 0.0758 and the “area with substrate ENLEFQS” value stood at 0.0615. The “area with substrate ENLFFQS” value turned out to be 0.105, the “area with substrate ENLGFQS” value was determined as 0.0688, the “area with substrate ENLHFQS” value amounted to 0.0739 and the “area with substrate ENLIFQS” value is 0.0774. Also, the “area with substrate ENLKFQS” value turned out to be 0.0707, the “area with substrate ENLLFQS” value worked out at 0.0325, the “area with substrate ENLMFQS” value was 0.0712 and the “area with substrate ENLNFQS” value amounted to 0.0612. Further, the “area with substrate ENLPFQS” value amounted to 0.0513, the “area with substrate ENLRFQS” value turned out to be 0.076, the “area with substrate ENLSFQS” value amounted to 0.0747 and the “area with substrate ENLVFQS” value came to 0.0626. The “area with substrate ENLWFQS” value came to 0.0846.
Turning to E224K, the “area with substrate ENLAFQS” value amounted to 0.0487, the “area with substrate ENLDFQS” value was 0.0677, the “area with substrate ENLEFQS” value amounted to 0.0418 and the “area with substrate ENLFFQS” value was determined as 0.0856. The “area with substrate ENLGFQS” value was 0.0772, the “area with substrate ENLHFQS” value came out at 0.0782, the “area with substrate ENLIFQS” value was 0.0822 and the “area with substrate ENLKFQS” value turned out to be 0.076. The “area with substrate ENLNFQS” value is 0.0681, the “area with substrate ENLQFQS” value stood at 0.0617, the “area with substrate ENLRFQS” value is 0.0902 and the “area with substrate ENLSFQS” value was determined as 0.0661. Also, the “area with substrate ENLVFQS” value was 0.0856 and the “area with substrate ENLWFQS” value came out at 0.0723.
With E224H, the “area with substrate ENLAFQS” value was found to be 0.0526, the “area with substrate ENLDFQS” value was found to be 0.0686, the “area with substrate ENLEFQS” value stood at 0.0585 and the “area with substrate ENLFFQS” value was 0.0893. The “area with substrate ENLHFQS” value was 0.0614, the “area with substrate ENLIFQS” value turned out to be 0.0751, the “area with substrate ENLKFQS” value is 0.0748 and the “area with substrate ENLLFQS” value turned out to be 0.077. In addition, the “area with substrate ENLNFQS” value amounted to 0.0705, the “area with substrate ENLQFQS” value is 0.0718, the “area with substrate ENLRFQS” value worked out at 0.0767 and the “area with substrate ENLSFQS” value is 0.0512.
Turning to K120G, the “area with substrate ENLAFQS” value came to 0.0794, the “area with substrate ENLDFQS” value came out at 0.0648, the “area with substrate ENLFFQS” value was 0.0666 and the “area with substrate ENLHFQS” value came out at 0.0678. The “area with substrate ENLIFQS” value was determined as 0.0754, the “area with substrate ENLKFQS” value came to 0.0965, the “area with substrate ENLLFQS” value worked out at 0.0611 and the “area with substrate ENLNFQS” value was determined as 0.0737. The “area with substrate ENLPFQS” value turned out to be 0.0605, the “area with substrate ENLQFQS” value came out at 0.0646, the “area with substrate ENLRFQS” value worked out at 0.0673 and the “area with substrate ENLWFQS” value is 0.0585.
